Assay results from ChEMBL document CHEMBL4888484, “Replenishing the malaria drug discovery pipeline: Screening and hit evaluation of the MMV Hit Generation Library 1 (HGL1) against asexual blood stage Plasmodium falciparum ,using a nano luciferase reporter read-out” (2022).
Screen size: about 150,000 compounds; about 540 (0.36%) showed an effect of 50% or more. Some of the results follow.

These molecules were tested on Plasmodium falciparum (assay: Primary screen in NF54 nanoGlo assay, in single point, at 2uM, 72h; a lower Z score goes with more inhibition). Conditions: timepoint 72 hour.
Type: functional, Erythrocyte
`O=C(NCCCc1ccccc1)[C@H]1CCCN(c2nc3ccc(Br)cc3[nH]2)C1` was tested, and the “% Inhibition” value was -2% and the Z score was 0.42.
With `C[C@@](O)(CNS(C)(=O)=O)Cc1ccco1` the “% Inhibition” value was 5% and the Z score was -0.69.
In the case of `CN1CC(C(=O)N2CCCC3CCCC32)CC1=O` (stereo unspecified), the “% Inhibition” value is reported as -7% and the Z score is reported as 0.6.
For `CC(C)[C@H](NC(=O)N1CC(=O)N(C2CC2)C1)C(F)(F)F`, the “% Inhibition” value was -8% and the Z score was 1.46.
For `CC(C)COC[C@@H](O)CN(Cc1c(-c2ccccc2)noc1N1CCOCC1)CC1CC1`, the “% Inhibition” value was -7% and the Z score was 1.07.
`CC(C)(C)OC(=O)ON1C(=O)CCC1=O` was tested, and the “% Inhibition” value was -6% and the Z score was 0.66.
In the case of `CCC1(CO)CCN(c2ccnc(C(=O)NCc3ccccn3)c2)CC1`, the “% Inhibition” value is reported as 17% and the Z score is reported as -2.26.
For `Cc1c(Cl)c(C(=O)NC[C@H]2CCC[C@@H](CO)C2)nn1C`, the “% Inhibition” value was 2% and the Z score was -0.29.
In the case of `CCCc1cncnc1N1C[C@@H]2CN(C3CCCC3)C[C@]2(C(=O)O)C1`, the “% Inhibition” value is reported as -11% and the Z score is reported as 2.18.
In the case of `CCC1(CC)CCN(C(=O)c2nnc(COC)o2)C1`, the “% Inhibition” value is reported as 4% and the Z score is reported as -0.54.
With `O[C@@](C#CCN1CCCCCC1)(c1ccccc1)c1cccnc1` the “% Inhibition” value was -12% and the Z score was 1.42.
With `Cc1nc(CNc2ccc(Br)cc2OC(F)F)no1` the “% Inhibition” value was -7% and the Z score was 1.
For `N#COc1ccc(C2(c3ccc(OC#N)cc3)c3ccccc3-c3ccccc32)cc1`, the “% Inhibition” value was -17% and the Z score was 2.77.
For `O=C1CN(C(=O)c2cccc3c2CCOC3)Cc2ccccc2N1`, the “% Inhibition” value was -11% and the Z score was 1.51.
In the case of `CCn1cc(CN2CCC(Oc3ccc4ccccc4c3)(C(=O)O)CC2)c(C)n1`, the “% Inhibition” value is reported as -13% and the Z score is reported as 1.87.
In the case of `CC(C)(C)c1ccc(C(=O)N2CC[C@H](Oc3ncc(Cl)cn3)C2)cc1`, the “% Inhibition” value is reported as 2% and the Z score is reported as -0.28.
In the case of `COc1cccc(C2C(NC(=O)CC3CCOC3)CCN2C2CC2)c1` (stereo unspecified), the “% Inhibition” value is reported as -9% and the Z score is reported as 1.19.
For `CCOc1ccc(N(CC)S(=O)(=O)N2CCC[C@H](C(=O)NCCc3c[nH]c4ccccc34)C2)cc1`, the “% Inhibition” value was -3% and the Z score was 0.28.
In the case of `CC(NCCC(=O)NCc1ccccc1Cl)C(C)n1cccn1` (stereo unspecified), the “% Inhibition” value is reported as -8% and the Z score is reported as 1.09.
With `CCN(CC)C[C@H](O)COc1ccc(CN(C)Cc2ccncn2)cc1OC` the “% Inhibition” value was -7% and the Z score was 0.96.
For `C#CCOC[C@@H](O)CN(Cc1ccc(F)cc1F)C(C)C`, the “% Inhibition” value was 5% and the Z score was -0.52.
In the case of `C[C@H](NC(=O)C1CC1c1ccccc1)[C@H](O)c1ccc2c(c1)OCO2` (stereo partly specified), the “% Inhibition” value is reported as 38% and the Z score is reported as -1.25.
With `COc1ccc(CN(CCc2c[nH]c3ccccc23)C(=O)CN(CC(C)C)C(=O)Nc2c(Cl)cccc2Cl)cc1OC` the “% Inhibition” value was -6% and the Z score was 0.93.
With `O=C(O)[C@H](Cc1ccccc1)NC(=O)[C@H](Cc1ccccc1)n1c(=O)[nH]c2ccccc2c1=O` the “% Inhibition” value was 2% and the Z score was -0.43.
For `O=C(CC1(O)CCOCC1)N1CCC[C@H](C2CCOCC2)C1`, the “% Inhibition” value was -3% and the Z score was 0.56.
With `Cc1ccncc1NC(=O)c1cccnc1O[C@H]1CCOC1` the “% Inhibition” value was -9% and the Z score was 1.7.
For `CN1CCC2(CCCN(C(=O)Cc3cccc(F)c3F)CC2)CC1`, the “% Inhibition” value was -17% and the Z score was 1.68.
`CC(C)NC(=O)N1CCN(C(=O)NC(C)C)[C@@H](C(=O)N[C@@H](CC2CCCCC2)C(N)=O)C1` was tested, and the “% Inhibition” value was 8% and the Z score was -1.02.
`O=C1NC2(CCN(C(=O)c3ccc(F)cc3)CC2)Nc2cc(F)c(F)cc21` was tested, and the “% Inhibition” value was 3% and the Z score was -0.54.
For `CN(Cc1ccc2c(c1)OCO2)c1ncccc1C(N)=O`, the “% Inhibition” value was 1% and the Z score was -0.24.
For `COc1cccc(C2CN(Cc3ccc(Cl)cc3)CC2CN(CC(C)C)C(=O)C(C)C)c1` (stereo unspecified), the “% Inhibition” value was -17% and the Z score was 1.63.
`O=S1(=O)CCC(CNC(CC2CCC2)c2ccccc2)C1` (stereo unspecified) was tested, and the “% Inhibition” value was 1% and the Z score was -0.09.
With `FC(F)(F)c1cccc(-c2c[nH]c([C@@H]3CCCN3Cc3nnc(-c4ccccc4)o3)n2)c1` the “% Inhibition” value was -4% and the Z score was 0.42.
`COCC(=O)N(Cc1ccc(C)cc1)c1cccc(CC(=O)N(C)Cc2ccco2)c1` was tested, and the “% Inhibition” value was -18% and the Z score was 2.45.
With `COC(=O)C[C@](C)(NC(=O)Cc1csc(C(C)C)n1)c1ccncc1` the “% Inhibition” value was -7% and the Z score was 0.83.
With `CCn1ncc(C(=O)N2CC(=O)N3C[C@@H](OC)C[C@H]3C2)c1C` the “% Inhibition” value was -3% and the Z score was 0.41.
For `CN(C(=O)c1cc2ccccc2[nH]1)C1CCCC1`, the “% Inhibition” value was 28% and the Z score was -3.83.
For `CN1CC2(CCC1=O)CCN(C(=O)c1cc(-c3ccccc3F)n[nH]1)CC2`, the “% Inhibition” value was -2% and the Z score was 0.46.
With `O=C1C2CCCC1CC(C(=O)N1CCCc3ccccc31)C2` (stereo unspecified) the “% Inhibition” value was -6% and the Z score was 1.14.
In the case of `Cc1ccc(N(C)C2CCN(C(=O)C3CC3c3ccco3)CC2)nn1` (stereo unspecified), the “% Inhibition” value is reported as 4% and the Z score is reported as -0.74.
In the case of `N#Cc1cc(C(=O)N2CCC[C@H]2Cn2cc(C3CC3)nn2)ccc1F`, the “% Inhibition” value is reported as -12% and the Z score is reported as 1.32.
In the case of `Cn1c(C(F)(F)F)nn(C2CCN(CC#N)CC2)c1=O`, the “% Inhibition” value is reported as 6% and the Z score is reported as -0.67.
In the case of `O=C(NCc1cc[nH]n1)c1ccc(-c2ccco2)[nH]c1=O`, the “% Inhibition” value is reported as -9% and the Z score is reported as 1.06.
`COCn1nc(C)c(S(=O)(=O)N2CC=C(C(C)(C)C)CC2)c1C` was tested, and the “% Inhibition” value was 0% and the Z score was 0.03.
In the case of `O=S1(=O)CCC[C@@]2(C(F)(F)F)CN(CC3(O)CCC3)C[C@H]21`, the “% Inhibition” value is reported as -11% and the Z score is reported as 2.02.
`Cc1ccc(-c2nc(C(=O)NCCc3ccc(Cl)cc3)cs2)n1C` was tested, and the “% Inhibition” value was -16% and the Z score was 1.86.
In the case of `Cn1c(N2CCC[C@H]2C(=O)NC2CC2)nc2ccccc21`, the “% Inhibition” value is reported as -8% and the Z score is reported as 0.91.
`CCOC(=O)N1CCCC[C@H](NC2CCN(c3ccc(F)c(F)c3)CC2)C1` was tested, and the “% Inhibition” value was 4% and the Z score was -0.83.
In the case of `CC1CCc2c(cnc3c(C(=O)NC4CCCC(C)C4C)cnn23)C1` (stereo unspecified), the “% Inhibition” value is reported as 0% and the Z score is reported as 0.01.
In the case of `CCn1nc(CC(N)=O)nc1-c1ccc(N)nc1`, the “% Inhibition” value is reported as -3% and the Z score is reported as 0.55.
For `COc1ccc(-c2nc3c([nH]2)CCN(C(=O)CC[C@@H]2NC(=O)NC2=O)C3)cn1`, the “% Inhibition” value was -6% and the Z score was 1.11.
In the case of `CCCCn1nc(C)nc1CCC(=O)c1ccccc1`, the “% Inhibition” value is reported as 7% and the Z score is reported as -0.67.
In the case of `O=C(NC1CC1)c1ccccc1NCc1c(F)cccc1Cl`, the “% Inhibition” value is reported as -9% and the Z score is reported as 1.41.
